Laboratory results published in paper PMC4336329 (PLoS ONE, 2015).
Among all 310,000 compounds or so, about 2,200 (0.71%) showed an effect of 50% or more. The effect is printed as a negative number. The list shows a part of the results.

Molecular target: human ether-à-go-go-related gene (hERG) potassium channel (human, UniProt Q12809)
Assay: primary screen, population patch clamp on CHO cells stably expressing hERG

human ether-à-go-go-related gene (hERG) potassium channel, sequence (Q12809 whole entry, looked up): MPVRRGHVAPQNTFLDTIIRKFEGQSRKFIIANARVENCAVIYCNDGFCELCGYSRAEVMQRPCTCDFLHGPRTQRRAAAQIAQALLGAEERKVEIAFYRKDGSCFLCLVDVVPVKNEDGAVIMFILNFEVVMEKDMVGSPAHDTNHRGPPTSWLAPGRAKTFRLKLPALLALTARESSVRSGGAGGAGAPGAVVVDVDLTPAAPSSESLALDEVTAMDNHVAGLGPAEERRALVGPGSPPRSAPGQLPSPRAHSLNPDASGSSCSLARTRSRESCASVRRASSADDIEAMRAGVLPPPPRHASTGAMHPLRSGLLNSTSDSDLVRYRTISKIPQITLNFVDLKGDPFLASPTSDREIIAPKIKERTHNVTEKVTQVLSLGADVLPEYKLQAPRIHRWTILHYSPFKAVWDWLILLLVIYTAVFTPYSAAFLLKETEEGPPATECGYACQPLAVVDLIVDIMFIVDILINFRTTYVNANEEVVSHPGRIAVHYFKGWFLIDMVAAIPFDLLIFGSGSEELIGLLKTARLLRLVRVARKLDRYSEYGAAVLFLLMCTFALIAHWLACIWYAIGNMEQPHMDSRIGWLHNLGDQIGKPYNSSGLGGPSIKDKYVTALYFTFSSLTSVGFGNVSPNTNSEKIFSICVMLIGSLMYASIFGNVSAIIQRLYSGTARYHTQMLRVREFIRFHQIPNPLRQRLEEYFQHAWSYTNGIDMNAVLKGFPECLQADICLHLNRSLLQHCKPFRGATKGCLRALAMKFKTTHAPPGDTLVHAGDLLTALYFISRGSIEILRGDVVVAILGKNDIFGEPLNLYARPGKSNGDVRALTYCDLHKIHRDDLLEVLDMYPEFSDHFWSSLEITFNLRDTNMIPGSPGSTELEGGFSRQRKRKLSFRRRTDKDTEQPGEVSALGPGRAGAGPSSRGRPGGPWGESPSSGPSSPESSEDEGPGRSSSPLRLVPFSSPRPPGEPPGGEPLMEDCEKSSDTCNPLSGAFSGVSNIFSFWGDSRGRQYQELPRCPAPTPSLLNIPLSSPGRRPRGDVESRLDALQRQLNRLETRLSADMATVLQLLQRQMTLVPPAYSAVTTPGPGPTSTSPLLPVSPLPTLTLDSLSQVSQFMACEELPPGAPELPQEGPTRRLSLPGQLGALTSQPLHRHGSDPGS

Row | Compound | hERG current change (%, negative = inhibition) at 1uM
1 | O=c1[nH]c(=O)n(Cc2ccccc2)c(O)c1C=NCCCO | -2.99%
2 | N#CCNC(=O)C1CC(=O)N(CCc2ccc(F)cc2)C1 (stereo not shown) | 15.6%
3 | COc1cc(N/N=C(\C)c2ccc(N)cc2)nc(-c2ccccc2)n1 | 10%
4 | Cc1nc(N2CCC(C)CC2)c2c(C)c(C(=O)Nc3ccc(C)c(F)c3)sc2n1 | 11.6%
5 | CCOC(=O)c1ccc2nc(C)c(CCC(C)=O)c(Cl)c2c1 | 7.23%
6 | CCOc1ccc(NC(=S)NC(=O)c2cccnc2)c([N+](=O)[O-])c1 | 13%
7 | Cc1ccc(S(=O)(=O)N2[C@@H](c3ccc(F)cc3)C(C(=O)O)=CC[C@H]2c2ccc(C(C)C)cc2)cc1 | 17.1%
8 | CCC(C)NS(=O)(=O)c1ccc(OCC(=O)N2CCN(CC)CC2)cc1 (stereo not shown) | 5.37%
9 | CCC(C)[C@H](NC(=O)NCc1cccnc1)C(=O)OC (stereo partly shown) | 12.2%
10 | CC1CN(c2ccc([N+](=O)[O-])c3cccnc23)CC(C)N1 (stereo not shown) | -8.73%
11 | Nc1nonc1-n1nnc(C(=O)N/N=C/c2cccc(F)c2)c1CN1CCCCCC1 | 18%
12 | Cc1cccc(CC2CC(=O)N(c3ccc([N+](=O)[O-])cc3)C2=O)c1 (stereo not shown) | -8.02%
13 | Cc1nc2c(cc1C(=O)N/N=C/c1ccc([N+](=O)[O-])cc1)c(=O)n(C)c(=O)n2C | -4.68%
14 | NC(=O)Cn1cc(/C=N\NS(=O)(=O)c2cccc([N+](=O)[O-])c2)c2ccccc21 | 9.8%
15 | COc1cccc(/C=N/NC(=O)C(C)Cn2cnc3ccccc32)c1 (stereo not shown) | -0.542%
16 | Cc1cc2cc(CCNC(=O)C(=O)c3c[nH]c4ccccc34)c(=O)[nH]c2cc1C | 3.28%
17 | CCOC(=O)CNC(=O)c1cn(C)c(=O)c2cc(OC)c(OC)cc12 | 12.1%
18 | O=C(c1ccc(CSc2ccc(Cl)cc2)cc1)N1CCOCC1 | 5.57%
19 | CN(Cc1cccnc1)Cc1cn(C)nc1-c1cccc(Cl)c1 | -1.09%
20 | COc1ccc(-c2nnc(SCC(=O)N(Cc3ccccc3)C(C)(C)C)o2)cc1OC | -7.09%
21 | O=C(CSc1nnc(-c2ccncc2)n1CC1CCCO1)Nc1nccs1 (stereo not shown) | 15.9%
22 | C=CCOc1ccc(C2/C(=C(/O)c3ccc4c(c3)CC(C)O4)C(=O)C(=O)N2CCCN2CCOCC2)cc1 (stereo not shown) | 17.2%

Row | Compound | hERG current change (%, negative = inhibition) at 1uM
23 | CCCC[C@@H]1CCCO[C@@](C(=O)NCc2cc(C)n(C)n2)(C(F)(F)F)C1 | 14.9%
24 | Cl.O=C(c1c(F)cccc1F)N(Cc1ccccn1)C1CC1 | -0.0127%
25 | O=C(Cn1ccc(C(F)(F)F)n1)N=Nc1c(O)[nH]c2ccc(Br)cc12 | 6.45%
26 | CC(=O)CC(C)(C)S(=O)(=O)c1ccc(Oc2ccc(S(=O)(=O)C(C)(C)CC(C)=O)cc2)cc1 | 8.08%
27 | S=C(NCc1ccco1)N/N=C/c1ccccc1Cl | 0.292%
28 | N#CCC(=O)Nc1ccc(C(=O)Nc2ccc3c(c2)OCO3)cc1 | 3.7%
29 | CC(=O)c1coc2ccc(OCCN3CCCCC3)cc12 | 3.59%
30 | O=C(O)c1ccc(NCc2cccnc2)cc1 | 17.5%
31 | Cc1ccccc1NC(=O)C12CC3CCC1(C)C3(C)CO2 (stereo not shown) | 4.62%
32 | COc1ccc(NC(=O)CCNC(=O)Cn2ccc3ccccc3c2=O)cc1OC | 13.9%
33 | COc1ccc(CNC(=O)CCC2N=C3c4ccccc4N=C(SCC(=O)NCC4CCCO4)N3C2=O)cc1 (stereo not shown) | 5.52%
34 | O=C(N/N=C/c1cccc(O)c1)c1csc2ccccc12 | 4%
35 | CN(C)CCOC(=O)C1(c2ccccc2)CCOCC1.Cl | 2.93%
36 | COc1ccc(CN2CCC(Oc3ccc(C(=O)N4CCCCC4)cc3)CC2)cc1C | -3.19%
37 | CCCC(NC(=O)Cc1c(C)c2c(cc(C)c3c(C)coc32)oc1=O)C(=O)O (stereo not shown) | 10.3%
38 | Cc1cc(C)c2nc3sc(C(=O)N4CCOCC4)c(N)c3cc2c1 | 6.85%
39 | COc1cc(NC(=O)c2cc(C)no2)c(OC)cc1Cl | 9.57%
40 | O=C(CC1C(=O)OCC2CCCCN21)Nc1ccccc1C(F)(F)F.O=C(O)C(=O)O (stereo not shown) | 3.9%
41 | CC(=O)c1ccc(NC(=O)[C@@]2(CC(=O)O)CC(/C=C/c3ccccc3)=NO2)cc1 | 12.1%
42 | O=C(CSc1nnc(Cc2ccccc2)c(=O)[nH]1)Nc1ccccc1 | -6.94%
43 | COc1ccc(OC)c(-n2c(Cn3c(-c4ccccn4)nc4ccccc43)n[nH]c2=S)c1 | 1.47%
44 | COc1ccc(C2=NOC(Cn3nc(-c4ccccc4)cc3C(=O)O)C2)cc1 (stereo not shown) | 21.6%

Row | Compound | hERG current change (%, negative = inhibition) at 1uM
45 | Cl.OC(CNCc1ccc(Cl)c(Cl)c1)c1ccccc1 (stereo not shown) | 7.33%
46 | CCOc1cccc(-c2nnc3sc(COc4ccc(C)cc4)nn23)c1 | 9.47%
47 | CCOc1ccc(C(=O)N/N=C/c2cc([N+](=O)[O-])cs2)cc1 | 4.48%
48 | CC(CN1CCCC1)OC(=O)COc1ccccc1.Cl (stereo not shown) | 9.11%
49 | COCCn1c(C)cc(C(=O)CSc2nc3ccccc3c(=O)n2C(C)COC)c1C (stereo not shown) | 16%
50 | Cc1c(NC(=O)COC(=O)c2ccc(Br)o2)c(=O)n(-c2ccccc2)n1C | 7.48%
51 | O=C1c2ccccc2C(=O)C1C1=Nc2ccccc2NC(c2ccccc2)C1 (stereo not shown) | 31.6%
52 | Cc1cc(C)c2c(c1)-c1cc(C)nn1C(c1cccnc1)N2 (stereo not shown) | -5.29%
53 | Cc1c(Cl)cccc1NC(=S)N1CCN(S(=O)(=O)c2cccs2)CC1 | 7.01%
54 | CC1CCCC(NC(=O)c2ccc(F)c(S(=O)(=O)N3CCOCC3)c2)C1C (stereo not shown) | 9.38%
55 | CCc1ccc(C(C(=O)NC2CCCC2)N(C(=O)/C=C/C(=O)Nc2cc(C)on2)c2ccccc2C)cc1 (stereo not shown) | 7.84%
56 | Cn1c(=O)c2ccccc2n(Cc2ccccc2Cl)c1=O | 4.87%
57 | O=C(COc1ccccc1Cl)Nc1ccc(Cl)cn1 | 17.3%
58 | O=C(NCc1ccco1)c1cccc(NS(=O)(=O)c2ccccc2F)c1 | 6.58%
59 | C=C1c2ccccc2S(=O)(=O)N(Cc2ccccc2)C1COCc1ccccc1 (stereo not shown) | 3.22%
60 | N#Cc1ccccc1OCC(=O)NNC(=O)CNC(=O)c1cccc(Br)c1 | 1.85%
61 | CCn1cc(C(=O)NCC2CCCO2)c(=O)c2cc(S(=O)(=O)N3CCCCC3)ccc21 (stereo not shown) | -8.38%
62 | c1ccc(Nc2n[nH]nc2-c2ccccc2)cc1 | -9.17%
63 | CC(Oc1ccc(Cl)cc1)c1ccnc(N)n1 (stereo not shown) | 15.5%
64 | COc1cc2c(cc1OC)CN(C(=O)Cc1c(F)cccc1Cl)CC2 | 11.9%
65 | COc1ccccc1-c1nc2n(n1)C(c1cccs1)C(C(=O)Nc1cccnc1)=C(C)N2 (stereo not shown) | 0.0177%
66 | CC1(NC(=O)CCNC(=O)c2ccc(C(C)(C)C)cc2)CCS(=O)(=O)C1 (stereo not shown) | 10.9%

Row | Compound | hERG current change (%, negative = inhibition) at 1uM
67 | O=[N+]([O-])c1cc(F)c(N2CCCCC2)cc1N1CCOCC1 | -12.4%
68 | O=C(CN1CCCCCCC1)N/N=C/c1ccc(F)c(F)c1 | -7.58%
69 | Cc1cccc(N(C(=O)CNC(=O)c2cccs2)C(C(=O)NC2CCCC2)c2cccnc2)c1 (stereo not shown) | 12.9%
70 | O=C(Nc1ccc(N2CCCCC2)cc1)c1ccc(F)cc1F | 13.3%
71 | O=C(CN1CCN(S(=O)(=O)c2cccc(Cl)c2)CC1)N1CCCCC1 | 13.2%
72 | COc1ccccc1C(=O)N/C(=C/c1ccc(Br)cc1)C(=O)N1CCCC1 | 9.34%
73 | COc1nc(N)nc(CC(=O)C2CC2)n1 | 7.85%
74 | CCCC(C)c1nnc(NC(=O)COc2ccc3c(c2)OCO3)s1 (stereo not shown) | 12.4%
75 | O=C(O)c1ccc(/C=N/n2c(C3CCCCC3)n[nH]c2=S)cc1 | 14.1%
76 | Cc1cc(C)n(C(=O)CNc2ccccc2Cl)n1 | 15.7%
77 | Cc1cc(NC(=O)/C=C/c2ccco2)ccc1NC(=O)c1ccccc1 | 10.7%
78 | Cc1nn(C)c(Oc2cccc(C(F)(F)F)c2)c1C#N | 4.96%
79 | Cn1nnnc1SCc1cc(=O)n2ccsc2n1 | 8.39%
80 | CCc1ccc(NC(=O)C(=O)N/N=C(\C)CC(=O)NCCOC)cc1 | 6.64%
81 | CCOP(=O)(OCC)c1nc(-c2cccc3ccccc23)oc1NCc1ccccc1 | 9.28%
82 | CCNC(=O)COC(=O)c1cc(C)nc2ccccc12 | 5.55%
83 | Cn1c(=O)cc(Nc2ccccc2)c2c(=O)n(-c3ccccc3)c(=O)n(-c3ccccc3)c21 | 9.57%
84 | CC(=O)c1cc(C#N)c(Oc2ccc(F)cc2)nc1C | 13%
85 | COc1cccc(NC(=O)COC(=O)Cc2ccc(Cl)cc2)c1 | 14.5%
86 | Cc1nn(C)cc1/C=N\NC(=O)c1csc2c1CCCC2 | 1.17%
87 | COC(=O)c1c(NC(=O)C2=COCCO2)sc(C)c1C | 8.77%
88 | O=C(CN1CCN(C(=O)c2ccccc2)CC1)Nc1ncc(Br)cc1Br | -84.9%
